Measurements from the supplement of paper PMC3334620.
In all, about 33,000 sequences were measured (“E-score (-0.5 to 0.5)”: median about -0.035, highest 2% from about 0.35 on). The list shows a part of the results.

Biological target: T1, Pdr3 (UniProt P33200)
T1 sequence: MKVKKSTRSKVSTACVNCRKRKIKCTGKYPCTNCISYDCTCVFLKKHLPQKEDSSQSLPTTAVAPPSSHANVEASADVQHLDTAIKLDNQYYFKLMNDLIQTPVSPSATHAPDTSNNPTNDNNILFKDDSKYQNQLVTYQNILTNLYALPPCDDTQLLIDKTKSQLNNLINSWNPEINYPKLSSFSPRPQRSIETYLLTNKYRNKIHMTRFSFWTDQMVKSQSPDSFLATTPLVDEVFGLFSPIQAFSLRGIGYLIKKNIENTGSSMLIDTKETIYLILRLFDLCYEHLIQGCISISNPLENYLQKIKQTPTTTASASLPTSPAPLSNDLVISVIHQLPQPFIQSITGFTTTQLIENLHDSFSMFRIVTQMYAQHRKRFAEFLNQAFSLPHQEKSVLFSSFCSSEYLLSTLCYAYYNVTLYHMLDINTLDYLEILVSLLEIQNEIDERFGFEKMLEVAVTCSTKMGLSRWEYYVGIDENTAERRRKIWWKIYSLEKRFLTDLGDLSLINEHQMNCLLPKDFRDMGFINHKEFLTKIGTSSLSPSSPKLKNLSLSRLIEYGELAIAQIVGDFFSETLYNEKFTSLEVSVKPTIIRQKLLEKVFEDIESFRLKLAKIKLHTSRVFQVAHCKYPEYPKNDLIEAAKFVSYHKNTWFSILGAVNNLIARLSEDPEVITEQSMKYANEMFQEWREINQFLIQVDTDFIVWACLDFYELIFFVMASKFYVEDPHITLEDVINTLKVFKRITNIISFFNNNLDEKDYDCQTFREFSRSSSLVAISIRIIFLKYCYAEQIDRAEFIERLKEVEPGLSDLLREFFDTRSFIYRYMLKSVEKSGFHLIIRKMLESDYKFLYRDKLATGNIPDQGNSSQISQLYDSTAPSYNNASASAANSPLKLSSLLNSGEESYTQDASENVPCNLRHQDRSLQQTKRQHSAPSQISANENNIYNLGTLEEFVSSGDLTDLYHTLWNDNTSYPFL
Test: PBM E-score (8-mer binding enrichment) (E-score (-0.5 to 0.5)); higher = stronger / more preferred TF binding; most listed sequences are background and not binding sites
Details: protein concentration: 200 nM; construct: GST-full length
Outline: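 Using PURExpress in vitro transcription/translation, GST-tagged yeast transcription factors were made in full-length or DNA-binding-domain form. These were applied at about 100-200 nM to double-stranded universal all-10-mer Agilent arrays, and bound protein was detected with fluorescent anti-GST. Scans were normalised with masliner before the Universal PBM Analysis Suite assigned E-scores to ungapped eight-base words pooled with their reverse complements.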

| Sequence | PBM E-score |
| --- | --- |
| GGATGGCA | 0.228 |
| GGGGCGAA | 0.141 |
| AAAGCAAT | 0.0266 |
| AACACAAC | 0.00023 |
| TGTCCTAA | -0.181 |
| AAATACCA | -0.109 |
| GAAGCTAC | -0.0903 |
| CCCACACG | 0.164 |
| AGGTTTTG | -0.197 |
| CACCCCCG | 0.0245 |
| ACCGGTGA | 0.0804 |
| GCCCTCCA | -0.179 |
| ATCTACCC | 0.179 |
| CCATTACG | -0.0613 |
| ACAACTCT | -0.166 |
| ACAACTGA | -0.111 |
| ACTGTGCG | 0.0144 |
| ATTGTGTG | -0.041 |
| ACCTCCGA | 0.0535 |
| AACTCAGC | -0.0255 |
| CGTAGGGA | -0.0724 |
| CAATGAAA | -0.107 |
| AGTAACCG | -0.0132 |
| CGTTGGAA | 0.00011 |
| AACATTGC | -0.0931 |

| Sequence | PBM E-score |
| --- | --- |
| CCTCCCCA | 0.00142 |
| AGCAAGGG | 0.0741 |
| GAGCCGGA | 0.362 |
| AAAGAACG | 0.108 |
| CTTTGTAA | -0.146 |
| AACGTACC | -0.0537 |
| ACCATTCC | 0.315 |
| ACGGACAG | 0.299 |
| GATACCAC | 0.229 |
| ACGAGCTC | 0.161 |
| TGTCTGAA | -0.0502 |
| ACGCGAGT | 0.0258 |
| GGTCGACA | -0.0158 |
| CATAGCAG | -0.233 |
| AGATATAG | -0.0232 |
| AGGTCTAG | -0.199 |
| AAGCAAAC | 0.0858 |
| AGTTTTCA | 0.0217 |
| AAGCTTCT | -0.211 |
| AGGATGGG | -0.0155 |
| ATAGTGTA | -0.148 |
| GGGATACC | 0.0837 |
| CACAAGAA | 0.166 |
| ATAATTAT | 0.123 |
| CCTCTACC | -0.104 |

| Sequence | PBM E-score |
| --- | --- |
| ACCTTTCT | -0.129 |
| ATAAATGC | -0.0434 |
| CTTGTGCC | -0.11 |
| GTGAATAA | -0.0263 |
| ATGCTTTG | 0.0044 |
| AGGACCCT | -0.253 |
| CGTAAAAA | -0.193 |
| AGACACAA | -0.0591 |
| CTCACGGA | 0.325 |
| ATTGGGAC | 0.0132 |
| ACACTGCC | 0.22 |
| ACAGAGGG | -0.195 |
| ATTGTATC | 0.042 |
| ATCAACCG | 0.0947 |
| CCCCAGGC | -0.112 |
| AATGGCCG | 0.213 |
| ATATCGTG | 0.0693 |
| AAGGAACA | -0.129 |
| GAAGTGCC | 0.0209 |
| CGCACATC | 0.136 |
| CTCTCGTC | -0.039 |
| TATGCATA | -0.314 |
| CTCAGAGA | -0.161 |
| TGGTTAAA | -0.168 |
| ACTTTCCA | -0.0377 |

| Sequence | PBM E-score |
| --- | --- |
| CATTTAGA | -0.0113 |
| GGGATTAC | 0.0389 |
| GTCATCCA | -0.0723 |
| ATTCGGCC | 0.328 |
| ATAAATTA | 0.103 |
| GTTGACGA | -0.0899 |
| CACCATAC | -0.0169 |
| ACCAGTCA | -0.0097 |
| CAGTGCAA | -0.12 |
| GTTTCTAA | -0.134 |
| CAAATTTG | 0.202 |
| TACACCCA | 0.134 |
| GGCGTTTA | -0.111 |
| GTTTACTA | 0.00235 |
| AAGTTAAC | -0.108 |
| CGTATGTC | 0.0348 |
| ACTATCTC | -0.0777 |
| CCAATCCC | 0.146 |
| CAACTCTC | -0.072 |
| GGACATCC | 0.22 |
| CCTTGCGC | 0.0113 |
| CCTACACG | -0.334 |
| ACAGCAGA | -0.126 |
| CCAAAGGG | 0.0192 |
| ATGTTGAC | 0.0989 |

| Sequence | PBM E-score |
| --- | --- |
| GAGTCTAC | -0.3 |
| CAGGGGGA | -0.286 |
| GCTTCCCA | -0.22 |
| CTATCAAC | 0.0811 |
| TTAATGAA | -0.0199 |
| CTATGCTA | -0.186 |
| ATATCGAT | 0.104 |
| AAAGCTTC | -0.0125 |
| GAGTGAGC | -0.14 |
| GGGAACAA | 0.188 |
| CGAGGGAA | 0.116 |
| CTATTGGC | -0.127 |
| AGTCCGCG | 0.364 |
| AAGGTCAG | -0.201 |
| CCCACGAC | -0.139 |
| TCGGGGAA | 0.131 |
| CGGGTTAG | 0.0824 |
| AATTGAGC | -0.135 |
| CCAACTCC | 0.217 |
| ACGAAGAT | -0.145 |
| ACACTGTC | -0.0527 |
| AAGCACTC | 0.098 |
| GCGGAGCA | 0.304 |
| AATTTCAC | -0.137 |
| ACTCGTCT | -0.0602 |

| Sequence | PBM E-score |
| --- | --- |
| ACATCTTA | -0.278 |
| CGCATAGC | -0.0553 |
| CGTTACAG | -0.179 |
| GTTACACA | -0.171 |
| AGGGTTCA | -0.243 |
| CTATTTTA | -0.141 |
| ATCGTTAA | 0.00324 |
| CCAACAAG | -0.165 |
| AGTGGTCC | 0.166 |
| CCTGGTAC | -0.219 |
| GTAATGTA | -0.208 |
| AAGGCTAG | -0.18 |
| CGTTGGCC | 0.035 |
| ACCCTGTA | -0.14 |
| ACTGTACT | -0.303 |
| ATAATAGG | -0.0551 |
| ATCATGTC | 0.101 |
| CAGAGGGG | -0.183 |
| CTCTATTA | -0.229 |
| CGATAAAC | -0.105 |
| GTCTCAGA | -0.208 |
| AGGCTACC | -0.213 |
| ATGTTTTG | -0.0912 |
| CAGTACGG | 0.0168 |
| GCGTCAGC | -0.0588 |

| Sequence | PBM E-score |
| --- | --- |
| GCTTGCCC | -0.301 |
| CGCTATAC | 0.0515 |
| GTACCGTA | 0.029 |
| GATTGGGC | 0.0826 |
| GGAAAACA | 0.117 |
| CTCTATCA | -0.27 |
| CAAACGTA | -0.149 |
| ACTGACCT | -0.0854 |
| ACCTCCGG | 0.402 |
| AGAATCCA | -0.0157 |
| AAGATATT | 0.101 |
| GTATGTTA | -0.0168 |
| GATTAGTA | -0.0538 |
| CGACTCGC | -0.176 |
| GAGAATTA | -0.0704 |
| ATAACGAC | -0.00828 |
| ACCAGACC | -0.0204 |
| CCAACGAC | -0.23 |
| GATTAATA | 0.158 |
| GGGGAATA | 0.121 |
| TAAAACAA | -0.174 |
| GATTCAGA | 0.045 |
| CCCTACAG | -0.246 |
| ATCTTCAC | -0.0755 |
| ACGCTTCA | -0.228 |

| Sequence | PBM E-score |
| --- | --- |
| AAACCCGT | -0.0551 |
| CCGGCTTA | 0.356 |
| ACGGTGTC | 0.0212 |
| GACCGCTC | -0.207 |
| CTCTCCAG | -0.27 |
| ACATATGT | 0.0334 |
| AGCTCCCC | -0.0962 |
| CGATCTGA | 0.0713 |
| ACAGCGGC | 0.0103 |
| ATTGAGTC | -0.0879 |
| GTCTACGA | -0.237 |
| AGTTGTCC | 0.196 |
| CGGAACGA | 0.464 |
| GTCTAACA | -0.116 |
| AAATTGCA | 0.108 |
| AAACCGCA | -0.0764 |
| GACCCTGA | -0.277 |
| CATCTATC | -0.059 |
| TCGGGACA | 0.167 |
| AGTAGGTG | -0.151 |
| CACGTTCA | -0.166 |
| CCCGGTTC | 0.259 |
| AGGACAAA | 0.0303 |
| GCGCGATA | 0.161 |
| TGCAGAAA | 0.0226 |

| Sequence | PBM E-score |
| --- | --- |
| TCCGAGCA | 0.324 |
| ACCTAGCA | -0.127 |
| CCAAAGGC | -0.205 |
| AAGATATG | 0.104 |
| GAAGGCAA | 0.177 |
| CGTAGTAA | 0.0211 |
| AATCCAGG | 0.0373 |
| AATGCGAT | -0.0401 |
| ACAGACGA | -0.048 |
| GAGTGGAA | -0.124 |
| AGGGCCAA | -0.208 |
| ACGTCAGC | 0.0284 |
| AGCCAATC | -0.012 |
| GCTATGAC | -0.078 |
| CCGTCACG | 0.238 |
| CTGGTCGA | -0.104 |
| GATAGTTA | 0.064 |
| AATTCGAA | -0.148 |
| CTAGCTCA | -0.218 |
